# Data reported in the supplement of paper PMC8813932.
# Structures can show the parent of a compound that is named as a salt. ± gives the standard deviation of the averaged measurements. The list shows a part of the results. Most values come without repeats; read them as rough.
# How the values were obtained:
# Assay in all cases: log2 surviving fraction relative to plate median (drug vs vehicle, or drug+dl922-947 vs dl922-947 alone); ovarian cancer lines: OVCAR4 is platinum-sensitive while Ov4Cis resists cisplatin and Ov4Carbo carboplatin; higher = more cell survival
# Details in all cases: compound concentration: 10 uM, 192 h
# [1] = test system: OVCAR4
# [2] = test system: Ov4Carbo
# [3] = test system: Ov4Cis
# [4] = dl922-947 oncolytic adenovirus co-treatment: MOI 10
# [5] = dl922-947 oncolytic adenovirus co-treatment: none
Structure (SMILES),"log2 surviving fraction [1, 4]","log2 surviving fraction [1, 5]","log2 surviving fraction [2, 4]","log2 surviving fraction [2, 5]","log2 surviving fraction [3, 4]","log2 surviving fraction [3, 5]"
Cc1nccn1CC1CCc2c(c3ccccc3n2C)C1=O (stereo not given) [Ondansetron (Zofran)],-0.157 ± 0.033,-0.219 ± 0.3,-0.831,0.278,0.199,0.0937
NCCc1c[nH]cn1 [Histamine Phosphate],0.753 ± 0.11,-0.0927 ± 1.2,0.283,0.823,-0.369,-0.179
O=C(Oc1ccccc1C(=O)O)c1ccccc1O [Sasapyrine],0.146 ± 0.38,-0.387 ± 0.94,-0.051,0.125,0.633,-0.405
CCN1CCN(C(=O)N[C@@H](C(=O)N[C@@H]2C(=O)N3[C@@H]2SC(C)(C)[C@@H]3C(=O)O)c2ccccc2)C(=O)C1=O [Piperacillin Sodium],0.295 ± 0.42,0.899 ± 0.43,-0.784,0.382,-0.386,-0.427
CC1(C)[C@H](C(=O)O)N2C(=O)C[C@H]2S1(=O)=O [Sulbactam sodium (Unasyn)],0.436 ± 0.25,-0.865 ± 1.9,1.6,0.11,0.37,0.341
c1ccc2nc(N3CCNCC3)ccc2c1 [Quipazine Maleate],0.369 ± 0.53,-0.227 ± 0.89,0.234,-1.11,0.664,0.188
CCN(Cc1ccncc1)C(=O)C(CO)c1ccccc1 (stereo not given) [Tropicamide],0.455 ± 0.34,0.793 ± 0.41,-1.03,0.0659,0.523,1.82
N[C@@H](Cc1cc(I)c(Oc2cc(I)c(O)c(I)c2)c(I)c1)C(=O)O [L-Thyroxine],0.439 ± 0.34,-0.0215 ± 0.22,0.365,-0.676,0.324,0.0763
Nc1ccc(S(=O)(=O)Nc2ncccn2)cc1 [Sulfadiazine],0.438 ± 0.48,0.0662 ± 0.31,-0.993,1.17,-0.109,1
C[C@]12CCC(=O)C=C1C=C[C@@H]1[C@@H]2CC[C@@]2(C)[C@H]1CC[C@@]2(O)CCC(=O)O [Potassium Canrenoate],-0.478 ± 0.018,-0.739 ± 0.32,-0.448,-0.337,0.0819,0.213
Cc1cccc(C)c1OCC(=O)N[C@@H](Cc1ccccc1)[C@@H](O)C[C@H](Cc1ccccc1)NC(=O)[C@H](C(C)C)N1CCCNC1=O [Lopinavir (ABT-378)],-0.464 ± 0.73,-2.11 ± 1.6,-0.211,-4.46,-1.46,-4.4
O=C1c2c(O)ccc(O)c2C(=O)c2c(NCCNCCO)ccc(NCCNCCO)c21 [Mitoxantrone Hydrochloride],-8.67 ± 1.3,-12.1 ± 6.9,-7.36,-11.9,-8.02,-15.8
CN1C2CCC1CC(OC(=O)C(O)c1ccccc1)C2 (stereo not given) [Homatropine Bromide],0.608 ± 0.19,1.2 ± 1.3,-0.551,2,-0.0158,0.625
C=C1CC[C@H](O)C/C1=C/C=C1\CCC[C@]2(C)[C@@H]([C@H](C)/C=C/[C@H](C)C(C)C)CC[C@@H]12 [Vitamin D2],0.509 ± 0.49,0.19 ± 0.47,-0.699,0.733,0.338,-0.156
CC1(C)O[C@@H]2C[C@H]3[C@@H]4CCC5=CC(=O)C=C[C@]5(C)[C@@]4(F)[C@@H](O)C[C@]3(C)[C@]2(C(=O)CO)O1 [Triamcinolone Acetonide],0.879 ± 0.33,0.452 ± 0.61,2.68,0.342,1.95,-0.897
NS(=O)(=O)Cc1noc2ccccc12 [Zonisamide],1.4 ± 0.39,0.3 ± 0.39,0.341,1.1,0.118,1.32
CCCN1C[C@H](CSC)C[C@@H]2c3cccc4[nH]cc(c34)C[C@H]21 [Pergolide mesylate],-0.464 ± 0.16,-0.397 ± 0.3,-0.275,0.62,0.174,-1.26
C[C@](N)(Cc1ccc(O)c(O)c1)C(=O)O [Methyldopa (Aldomet)],-0.208 ± 0.45,0.12 ± 0.47,1.91,-0.481,1.25,1.43
NC(=O)OCC(COC(N)=O)c1ccccc1 [Felbamate],-0.0351 ± 1.1,0.112 ± 0.74,0.624,-0.602,0.457,0.578
CCC(=O)NCC[C@@H]1CCc2ccc3c(c21)CCO3 [Ramelteon (TAK-375)],1.29 ± 0.49,1.35 ± 1.4,2.09,0.906,1.95,1.31
COc1ccc2cccc(CCNC(C)=O)c2c1 [Agomelatine],0.649 ± 0.075,1.04 ± 0.47,1.2,1.63,1.84,0.453
O=C(Nc1ccccc1)OCC(CN1CCCCC1)OC(=O)Nc1ccccc1 (stereo not given) [Diperodon HCl],-0.325 ± 0.41,-0.754 ± 0.3,-1.05,-0.838,-0.785,-0.409
CC(=O)Nc1c(I)c(C(=O)N[C@H]2C(O)O[C@H](CO)[C@@H](O)[C@@H]2O)c(I)c(N(C)C(C)=O)c1I (stereo not given in full) [Metrizamide],0.728 ± 0.77,0.814 ± 0.41,0.276,0.604,0.468,-0.152

Structure (SMILES),"log2 surviving fraction [1, 4]","log2 surviving fraction [1, 5]","log2 surviving fraction [2, 4]","log2 surviving fraction [2, 5]","log2 surviving fraction [3, 4]","log2 surviving fraction [3, 5]"
CO[C@H]1C[C@@H]2CC[C@@H](C)[C@@](O)(O2)C(=O)C(=O)N2CCCC[C@H]2C(=O)O[C@H]([C@H](C)C[C@@H]2CC[C@@H](O)[C@H](OC)C2)CC(=O)[C@H](C)/C=C(\C)[C@@H](O)[C@@H](OC)C(=O)[C@H](C)C[C@H](C)/C=C/C=C/C=C/1C [Rapamycin (Sirolimus)],-2.1 ± 0.6,-6.91 ± 2.6,-2.68,-6.9,-2.06,-6.45
CCCC(CCC)C(=O)O[C@H]1C[C@H]2CC[C@@H](C1)[N+]2(C)C [Anisotropine Methylbromide],-0.00106 ± 0.0077,0.329 ± 0.18,0.00223,-0.248,-0.0533,0.655
CCN1CC(CCN2CCOCC2)C(c2ccccc2)(c2ccccc2)C1=O (stereo not given) [Doxapram HCl],0.423 ± 0.59,-0.00337 ± 0.052,0.384,0.393,0.607,-0.114
O=C1c2cccc3c2[C@H](CCC3)CN1[C@@H]1CN2CCC1CC2 [Palonosetron HCl],-0.557 ± 1.2,-0.7794 ± 0.0057,-1.56,-0.982,-0.289,-0.899
CC1(C)S[C@@H]2[C@H](NC(=O)[C@H](N)c3ccccc3)C(=O)N2[C@H]1C(=O)O [Ampicillin sodium],-0.465 ± 0.15,-0.434 ± 0.037,-0.344,-0.74,-0.0781,-0.0774
CCN(CC)C(=S)SSC(=S)N(CC)CC [Disulfiram (Antabuse)],-8 ± 0.33,-8.32 ± 4,-6.11,-8.91,-8.53,-12.2
COc1ccc(O)cc1 [Mequinol],-0.529 ± 0.037,-0.584 ± 0.6,-0.324,-0.859,-0.884,0.185
Cc1c(Cl)cccc1Nc1ccccc1C(=O)O [Tolfenamic acid],-0.00229 ± 0.22,0.915 ± 0.46,1.5,-0.748,-0.066,-0.0476
CN(C)CCC(c1ccccc1)c1ccccn1 (stereo not given) [Pheniramine Maleate],-1.21 ± 0.33,-0.473 ± 0.54,-0.674,0.0741,-0.746,-0.443
COc1ccccc1OCC(O)CN1CCN(CC(=O)Nc2c(C)cccc2C)CC1 (stereo not given) [Ranolazine (Ranexa)],0.00103 ± 0.17,0.454 ± 0.25,-1.14,1.22,-0.578,0.334
Cc1nc2c([nH]1)-c1ccccc1N(C(=O)c1ccc(NC(=O)c3ccccc3-c3ccccc3)cc1)CC2 [Conivaptan HCl (Vaprisol)],-1.42 ± 0.49,-1.54 ± 0.14,-1.2,-2.58,-1.58,-0.677
CS(=O)(=O)c1ccc([C@@H](O)[C@@H](CF)NC(=O)C(Cl)Cl)cc1 [Florfenicol],-0.371 ± 0.62,-0.998 ± 0.39,0.956,-0.683,0.0527,-0.0647
C[C@@H](O)[C@H]1C(=O)N2C(C(=O)O)=C(S[C@@H]3CN[C@H](C(=O)N(C)C)C3)[C@H](C)[C@H]12 [Meropenem],-0.111 ± 0.67,-0.407 ± 1,0.546,-0.483,-0.413,-0.616
O=C([O-])C(O)[C@H](O)[C@@H](O)[C@H](O)[C@H](O)CO.O=C([O-])C(O)[C@H](O)[C@@H](O)[C@H](O)[C@H](O)CO.[Ca+2] (stereo not given in full) [Calcium Gluceptate],0.327 ± 0.17,0.198 ± 1.2,0.997,0.0484,0.298,0.364
CN(C)CCc1c[nH]c2ccc(CS(=O)(=O)N3CCCC3)cc12 [Almotriptan malate (Axert)],-0.261 ± 0.35,0.636 ± 1,-0.522,0.233,0.00403,-0.657
NC(=O)c1ncn([C@@H]2O[C@H](CO)[C@@H](O)[C@H]2O)c1N [Acadesine],0.999 ± 0.28,0.417 ± 0.37,0.6,0.481,0.522,0.672
COC(=O)C1=C(C)NC(C)=C(C(=O)OCCN(C)Cc2ccccc2)C1c1cccc([N+](=O)[O-])c1 (stereo not given) [Nicardipine HCl],-0.654 ± 0.51,-0.65 ± 0.39,0.0535,-0.839,-0.193,-0.0148
C[C@@H](c1ncncc1F)[C@](O)(Cn1cncn1)c1ccc(F)cc1F [Voriconazole],1.07 ± 0.0062,0.706 ± 0.62,-0.252,0.461,0.0259,0.313
COC(=O)C1=CO[C@@H](O)[C@@H]2C(CO)=CC[C@H]12 [Genipin],0.777 ± 0.3,0.451 ± 0.23,0.276,0.72,1.32,0.652
C=CCNC(N)=S [Allylthiourea],1.12 ± 0.55,1.21 ± 0.53,0.98,0.0825,1.12,-0.895
Clc1ccc2c(c1)CCc1cccnc1C2=C1CCNCC1 [Desloratadine],-4.14 ± 4.1,-2.62 ± 1.9,-7.22,-8.16,-2.84,-3.06
Clc1ccc(C(c2ccccc2Cl)C(Cl)Cl)cc1 (stereo not given) [Mitotane (Lysodren)],0.0752 ± 0.97,-0.533 ± 0.16,0.956,1.16,-0.921,-1.09
